Test results from the antibiotic and cytotoxicity screens of Wong et al. (2023).
Some of the results follow.

Experiments:
HSkMC = human skeletal muscle cells; assay: cytotoxicity call (relative viability < 0.9); conditions: 10 µM
HepG2 = assay: cytotoxicity call (relative viability < 0.9); conditions: 10 µM
S. aureus RN4220 = assay: growth inhibition call (relative growth <= 0.2); conditions: 50 µM

| SMILES | cytotoxicity call (HSkMC) | cytotoxicity call (HepG2) | growth inhibition call (S. aureus RN4220) |
| --- | --- | --- | --- |
| C[C@H]1CN([C@@H](C)CO)C(=O)Cc2cc(NS(=O)(=O)c3ccccc3)ccc2O[C@@H]1CN(C)Cc1ccc(-c2ccccc2)cc1 | active | inactive | inactive |
| C[C@H](CO)N1C[C@H](C)[C@H](CN(C)CC2CCCCC2)Oc2ccc(NC(=O)Nc3ccc(F)cc3)cc2C1=O | inactive | inactive | inactive |
| C[C@@H]1CN([C@H](C)CO)C(=O)CCCn2cc(nn2)CO[C@H]1CN(C)C(=O)C1CC1 | inactive | inactive | inactive |
| CCOC(=O)OC(C)OC(=O)C1N2C(=O)C(NC(=O)C(N)c3ccccc3)C2SC1(C)C.Cl (centres undefined) | inactive | inactive | active |
| CN(C)CC(=O)N[C@H]1CC[C@@H](CCNS(=O)(=O)c2ccccc2)O[C@H]1CO | inactive | inactive | inactive |
| Cc1noc(C)c1NC(=O)N(C)C[C@H]1OCCCC[C@@H](C)Oc2ccc(NC(=O)Nc3ccc(F)cc3)cc2C(=O)N([C@@H](C)CO)C[C@H]1C | inactive | inactive | inactive |
| Cc1ccc(S(=O)(=O)Nc2ccc3c(c2)C(=O)N([C@@H](C)CO)C[C@H](C)[C@@H](CN(C)C(=O)NC(C)C)O3)cc1 | inactive | inactive | inactive |
| Cc1noc(C)c1S(=O)(=O)Nc1cccc2c1O[C@H](CN(C)S(=O)(=O)c1ccc(F)cc1)[C@H](C)CN([C@H](C)CO)C2=O | inactive | inactive | inactive |
| NCc1nnnn1-c1ccccc1 | inactive | inactive | inactive |
| C[C@@H]1CCCCO[C@@H](CN(C)CC2CCCCC2)[C@H](C)CN([C@@H](C)CO)C(=O)c2cc(NC(=O)C3CCCCC3)ccc2O1 | inactive | inactive | inactive |
| C[C@@H]1CCCCO[C@@H](CN(C)Cc2ccc(C(F)(F)F)cc2)[C@H](C)CN([C@@H](C)CO)C(=O)c2cc(NC(=O)Nc3ccc(C(F)(F)F)cc3)ccc2O1 | active | inactive | inactive |
| CO[C@@H]1CN(C)C(=O)c2ccc(NC(=O)Nc3ccccc3)cc2OC[C@@H](C)N(C(=O)CN(C)C)C[C@@H]1C | inactive | inactive | inactive |
| O=C(O)/C=C/C(=O)NN1C(=O)c2ccccc2C1=O | inactive | inactive | inactive |
| O=C(O)c1ccncc1 | inactive | inactive | inactive |
| CNC(=N)NCCC[C@@H](N)C(=O)O | inactive | inactive | inactive |
| C=CCC[C@H](Cc1ccc(F)cc1)C(=O)OC[C@H](Cc1c[nH]c2ccccc12)NC(=O)[C@@H](CC=C)CC(=O)N(CCO)Cc1ccccc1 | active | active | inactive |
| Cn1cnc(S(=O)(=O)N[C@H]2CC[C@@H](CC(=O)NCC3CC3)O[C@@H]2CO)c1 | inactive | inactive | inactive |
| COc1ccc(C[C@H]2c3cc(OC)c(OC)cc3CC[N@+]2(C)CCC(=O)OCCCCCOC(=O)CC[N@+]2(C)CCc3cc(OC)c(OC)cc3[C@@H]2Cc2ccc(OC)c(OC)c2)cc1OC | inactive | inactive | inactive |
| CO[C@@H]1CN(C)C(=O)c2cc(NC(=O)C3CC3)ccc2OC[C@H](C)N(C(=O)CN2CCOCC2)C[C@@H]1C | inactive | inactive | inactive |
| C[C@H](CO)N1C[C@H](C)[C@@H](CN(C)C(=O)Nc2ccc(F)cc2)Oc2ccc(NS(C)(=O)=O)cc2CC1=O | inactive | inactive | inactive |

| SMILES | cytotoxicity call (HSkMC) | cytotoxicity call (HepG2) | growth inhibition call (S. aureus RN4220) |
| --- | --- | --- | --- |
| CN1CCN(C(=O)C[C@H]2CC[C@@H](NC(=O)Cc3ccccn3)[C@@H](CO)O2)CC1 | inactive | inactive | inactive |
| C[C@@H]1CCCCO[C@@H](CN(C)C(=O)c2ccncc2)[C@@H](C)CN([C@H](C)CO)C(=O)c2cc(NC(=O)NC3CCCCC3)ccc2O1 | inactive | inactive | inactive |
| C=C(C)Cn1c(N2CCN(CCO)CC2)nc2c1c(=O)n(C)c(=O)n2C | inactive | inactive | inactive |
| COc1ccc(S(=O)(=O)N(C)C[C@@H]2Oc3ccc(NC(=O)CCN4CCOCC4)cc3C(=O)N([C@@H](C)CO)C[C@H]2C)cc1 | inactive | inactive | inactive |
| C[C@H](CO)N1C[C@H](C)[C@@H](CN(C)Cc2ccc(C(=O)O)cc2)Oc2c(NC(=O)Nc3cccc4ccccc34)cccc2C1=O | inactive | inactive | inactive |
| COc1ccc(S(=O)(=O)N(C)C[C@@H]2Oc3ccc(NS(C)(=O)=O)cc3C(=O)N([C@H](C)CO)C[C@H]2C)cc1 | inactive | inactive | inactive |
| C[C@@H]1CN([C@H](C)CO)C(=O)c2cc(C#Cc3ccccc3F)cnc2O[C@H]1CN(C)S(=O)(=O)c1ccccc1F | inactive | inactive | inactive |
| C[C@H](CO)N1C[C@H](C)[C@@H](CN(C)S(=O)(=O)c2cn(C)cn2)Oc2ccc(NC(=O)c3ccncc3)cc2C1=O | inactive | inactive | inactive |
| C[C@@H]1CCCCO[C@@H](CN(C)Cc2ccc(C(=O)O)cc2)[C@@H](C)CN([C@H](C)CO)C(=O)c2cc(NS(=O)(=O)c3ccc(F)cc3)ccc2O1 | inactive | inactive | inactive |
| COC(=O)c1ccc(=O)oc1 | inactive | inactive | inactive |
| CN(C)CCCNC(=O)C[C@H]1C=C[C@@H](NS(=O)(=O)c2ccccc2)[C@H](CO)O1 | inactive | inactive | inactive |
| N#C[C@H]1NCc2cnnn2Cc2ccccc21 | inactive | inactive | inactive |
| CCOC(=O)n1ncc(C#N)c1N | inactive | inactive | inactive |
| COc1ccc(NC(=O)N(C)C[C@@H]2OCCCC[C@@H](C)Oc3ccc(NC(=O)Nc4c(C)noc4C)cc3C(=O)N([C@H](C)CO)C[C@H]2C)cc1 | inactive | inactive | inactive |
| C[C@H](CO)N1C[C@H](C)[C@@H](CN(C)S(C)(=O)=O)Oc2ccc(NC(=O)Nc3ccc(F)cc3)cc2CC1=O | inactive | inactive | inactive |
| C[C@H](CO)N1C[C@H](C)[C@H](CN(C)C)OCCCC[C@H](C)Oc2ccc(NS(=O)(=O)c3cn(C)cn3)cc2C1=O | inactive | inactive | inactive |
| C[C@@H]1CN([C@H](C)CO)C(=O)c2cc(NC(=O)Cc3ccccc3)ccc2O[C@@H](C)CCCCO[C@@H]1CN(C)C(=O)Cc1ccccc1 | inactive | inactive | inactive |
| CN(C)C(=N)NCCC[C@H](N)C(=O)O | inactive | inactive | inactive |
| C[C@H]1CN([C@@H](C)CO)C(=O)c2cccc(NS(=O)(=O)c3ccc(F)cc3)c2O[C@H]1CN(C)Cc1ccc(Cl)c(Cl)c1 | inactive | inactive | inactive |
| COc1ccc(CN(C)C[C@@H]2OCCCC[C@H](C)Oc3ccc(NC(=O)Nc4ccc(F)cc4)cc3C(=O)N([C@@H](C)CO)C[C@@H]2C)cc1 | inactive | active | inactive |

| SMILES | cytotoxicity call (HSkMC) | cytotoxicity call (HepG2) | growth inhibition call (S. aureus RN4220) |
| --- | --- | --- | --- |
| Cc1onc(C(=O)N2CCOCC2)c1[N+](=O)[O-] | inactive | inactive | inactive |
| O=C1O[C@H](c2ccccc2)[C@H](c2ccccc2)N2[C@H]1[C@@H](C(=O)N1CCCCCCC1)[C@]1(C(=O)Nc3ccc(C#CC4(O)CCCCCC4)cc31)[C@H]2c1ccc(OCCO)cc1 | inactive | inactive | inactive |
| C[C@@H]1CCCCO[C@@H](CN(C)C(=O)Nc2ccc(F)cc2)[C@H](C)CN([C@@H](C)CO)C(=O)c2cc(NC(=O)NC3CCCCC3)ccc2O1 | inactive | inactive | inactive |
| Cc1noc(C)c1NC(=O)Nc1ccc2c(c1)C(=O)N([C@@H](C)CO)C[C@H](C)[C@H](CN(C)C(=O)C1CCCCC1)OCCCC[C@@H](C)O2 | inactive | inactive | inactive |
| CC(C)=CCCC(C)CC=O (centres undefined) | inactive | inactive | inactive |
| C[C@@H]1CCCCO[C@@H](CN(C)S(=O)(=O)c2ccc(F)cc2)[C@@H](C)CN([C@H](C)CO)C(=O)c2cc(NC(=O)NC3CCCCC3)ccc2O1 | inactive | inactive | inactive |
| C[C@H]1CN([C@@H](C)CO)S(=O)(=O)c2ccc(-c3ccncc3)cc2O[C@H]1CN(C)C(=O)c1ccc2c(c1)OCO2 | inactive | inactive | inactive |
| C[C@@H]1CN([C@@H](C)CO)C(=O)c2cc(NC(=O)Cc3ccccc3)ccc2O[C@H]1CN(C)Cc1ccc(Oc2ccccc2)cc1 | inactive | inactive | inactive |
| N[C@@H](CC(=O)NO)C(=O)O | inactive | inactive | inactive |
| C[C@H](CO)N1C[C@H](C)[C@H](CN(C)C(=O)Nc2ccc(C(F)(F)F)cc2)Oc2c(NC(=O)Nc3ccccc3)cccc2C1=O | inactive | inactive | inactive |
| C[C@H]1CN([C@@H](C)CO)C(=O)c2cc(NS(C)(=O)=O)ccc2O[C@H]1CN(C)C(=O)Nc1ccc(F)cc1 | inactive | inactive | inactive |
| C[C@H](CO)N1C[C@H](C)[C@H](CN(C)Cc2cccc3c2OCCCO3)OCc2ccccc2-c2c(n(C)c3ccccc23)C1=O | inactive | inactive | inactive |
| C[C@H](CO)N1C[C@H](C)[C@H](CN(C)Cc2ccc3c(c2)OCO3)Oc2c(NC(=O)c3ccncc3)cccc2C1=O | inactive | inactive | inactive |
| C[C@@H]1CN([C@@H](C)CO)S(=O)(=O)c2ccc(-c3ccncc3)cc2O[C@H]1CN(C)C(=O)c1cccc(F)c1 | inactive | inactive | inactive |
| Nc1ccc(C(=O)O)cc1 | inactive | inactive | inactive |
| C[C@@H]1CN([C@@H](C)CO)C(=O)c2cc(NC(=O)Nc3ccc(C(F)(F)F)cc3)ccc2O[C@@H](C)CCCCO[C@@H]1CN(C)Cc1ccc2c(c1)OCO2 | inactive | inactive | inactive |
| CC(C)NC(=O)N(C)C[C@H]1Oc2c(NC(=O)C3CCOCC3)cccc2C(=O)N([C@@H](C)CO)C[C@@H]1C | inactive | inactive | inactive |
| C[C@@H]1CN([C@@H](C)CO)C(=O)c2cc(NC(=O)Cc3cn(C)c4ccccc34)ccc2O[C@@H]1CN(C)C(=O)Nc1cccc2ccccc12 | active | active | inactive |
